Consider 56 variants from the RNAGym collection of RNA variant scans (doi:10.7554/elife.90254).

Sequences and labels used below:
B1: LINE1-mini (parent)
chain: GGCAGAGCUCAACACAGCGUGGCAAAGUGGCUGUGGCUAGACUGCC

The source gives no read counts; variants with many changes may rest on few reads.

The variants in this data set derive from B1. The experiment in a line: self-cleavage, relative activity (ratio to wild type); higher = more cleavage; in vitro, sequencing; the parent is a self-cleaving ribozyme.
Regarding GGCAGAGCUCCACAAAGCGUGGCAAAGAGGCUGGGGCUAGACUGCC [A11C C15A U28A U34G], the self-cleavage was 0.01.

With GGCAGAGCUCCACACAGACUGGCAAAGUGGGUGUGGCUAGACUGCC [A11C C18A G19C C31G], the self-cleavage is 0.

As to GGCAGAGCUCCACACAACGUGGCAAAGUGGCUUUGGCUAGACUGCC [A11C G17A G33U], the self-cleavage came out at 0.01.

With GGCAGAGCUCCACACAGAGUGGCAAAGUGGUUGUGGCUAGACGGCC [A11C C18A C31U U43G], the self-cleavage stood at 0.

Turning to GGCAGAGCUCCACACAGAGUGGCAAAGUGGUUGUGGCUAGACAGCC [A11C C18A C31U U43A], the self-cleavage was 0.01.

For GGCAGAGCUCCACACAGCGUGGCACAGUGGCUGUGGCUCGACUGCC [A11C A25C A39C], the self-cleavage turned out to be 0.

Consider GGCAGAGCUCCACACUGCGUGGCAAAGCGUCUGUGGCUAGACUGCC [A11C A16U U28C G30U], for which the self-cleavage was 0.01.

In the case of GGCAGAGCUCCACUCACCGUGGCAAAGUGGCUCUGGCUAGACUGCC [A11C A14U G17C G33C], the self-cleavage was 0.

For GGCAGAGCUCCACACAUUGUGUCAAAGUGUCUAUGGCUAGACUGCC [A11C G17U C18U G22U G30U G33A], the self-cleavage was found to be 0.02.

Regarding GGCAGAGCUCCACACAUCGUGUCAAAGUGGCUGUGGCUAGACAGCC [A11C G17U G22U U43A], the self-cleavage turned out to be 0.01.

With GGCAGAGCUCCACACAGCGUGGGAAAGUGGCUGUGGCUAGAGUGCC [A11C C23G C42G], the self-cleavage amounted to 0.

In the case of GGCAGAGCUCCACACAGGGUGGCGAAGUGGCUGCGCCUAGACUGCC [A11C C18G A24G U34C G36C], the self-cleavage was 0.01.

For GGCAGAGCUCCACGCAGCGUGGGAUAGUGGCUGUCGCUAGACAGCC [A11C A14G C23G A25U G35C U43A], the self-cleavage was determined as 0.01.

Take GGCAGAGCUCCAUACAGCGUGGCAAAGUGGCUGUGGAUAGAAUGCC [A11C C13U C37A C42A]: the self-cleavage was 0.01.

Take GGCAGAGCUCCAAACAGCGUGGAAAAGUGGCUGUGGCUGGAUUGCC [A11C C13A C23A A39G C42U]: the self-cleavage is 0.

As for GGCAGAGCUCCAUACAGCGUGGCAAAGUGGCUGUCGCUAGACUACC [A11C C13U G35C G44A], the self-cleavage turned out to be 0.

With GGCAGAGCUCCACACAGCGUGGCAGAGUGGCUGUGGCUAGACAGCC [A11C A25G U43A], the self-cleavage was 0.01.

Turning to GGCAGAGCUCCACACAGCGUGGCAAAGUGGAUGUAGCUAGGCAGCC [A11C C31A G35A A41G U43A], the self-cleavage stood at 0.01.

Regarding GGCAGAGCUCCACACAGUGUGGCGAAGUGGCUGUCGCUAGACUGCC [A11C C18U A24G G35C], the self-cleavage turned out to be 0.

On to GGCAGAGCUCCACACAGCUUGGCAAAGUGGCGGCGGAUAGACUGCC [A11C G19U U32G U34C C37A], for which the self-cleavage was 0.

GGCAGAGCUCCACACAGUGUGGCAAAGUGGCUGUGGCGAGACUACC [A11C C18U U38G G44A]: the self-cleavage amounted to 0.

For GGCAGAGCUCCACACAGCGUGGCAGAGUGACUGUGGAUAGACUGCC [A11C A25G G30A C37A], the self-cleavage turned out to be 0.02.

GGCAGAGCUCCACACAGCGUGGCAAAGUGGGUGUGGCUAGACUGAC [A11C C31G C45A]: the self-cleavage turned out to be 0.01.

As for GGCAGAGCUCCACACAGCAUGGCAAAGUGGCUGUGGCCAGUCUGCC [A11C G19A U38C A41U], the self-cleavage is 0.02.

GGCAGAGCUCCACACAGGGUGGGAAAGUGGCUGUGGCUAGUCGGCC [A11C C18G C23G A41U U43G]: the self-cleavage worked out at 0.

On to GGCAGAGCUCCACACAGCGUGGCAAAGUGGCUGUGGCUAGCAUGCC [A11C A41C C42A], for which the self-cleavage was determined as 0.03.

In the case of GGCAGAGCUCCACACAACGUGCUCACGUGGCUGUGGGUAGACUGCC [A11C G17A G22C C23U A24C A26C C37G], the self-cleavage worked out at 0.02.

As to GGCAGAGCUCCACACAUGGUGGCAAAGUGGCUGUGGGUAGACUGCC [A11C G17U C18G C37G], the self-cleavage came to 0.02.

In the case of GGCAGAGCUCCACACAGCGUGGCAAAGUGGCUGUGGAUCGACUGCC [A11C C37A A39C], the self-cleavage came out at 0.

Consider GGCAGAGCUCCAUACAGCGUGGCAAAGUGGCUGUGGCUAGACUCCC [A11C C13U G44C], for which the self-cleavage was 0.06.

With GGCAGAGCUCCACACAGCCUGGCAAAGUAGCUGUGGCUAGACUGCC [A11C G19C G29A], the self-cleavage came to 0.01.

On to GGCAGAGCUCCACUCAGCGUAGCAAAGUGGCUGUGGCUAGACUGCC [A11C A14U G21A], for which the self-cleavage is 0.03.

Consider GGCAGAGCUCCAUACAGCGUCGCAUAGUGGCUGUGGCUAGACUGCC [A11C C13U G21C A25U], for which the self-cleavage was determined as 0.02.

With GGCAGAGCUCCACACAGCCUAGCAAAGUGGCUGUGGGUAGGCUGCC [A11C G19C G21A C37G A41G], the self-cleavage amounted to 0.

For the variant GGCAGAGCUCCACUCAGCGUGGCAAAGUUGCUGUGGCUAGACUGCC [A11C A14U G29U], the self-cleavage stood at 0.

Take GGCAGAGCUCCAAACAGCUUGGCGAAGUGGCUGUGGCUAGACUGCC [A11C C13A G19U A24G]: the self-cleavage was determined as 0.

On to GGCAGAGCUCCACACAGCGUGGCAAAGUGGGUGUGGCUAGCGUGCC [A11C C31G A41C C42G], for which the self-cleavage amounted to 0.

Regarding GGCAGAGCUCCACACAGCGUGGCAAAGUGGUUGUGGCUUGACAGCC [A11C C31U A39U U43A], the self-cleavage is 0.03.

As for GGCAGAGCUCCACACAGCGUGGCAUAAUGGCUGUGGCUAGACUGCC [A11C A25U G27A], the self-cleavage stood at 0.07.

GGCAGAGCUCCACACAGCUUGGCAAAGUGGCUGUGGGUAGACUGCC [A11C G19U C37G]: the self-cleavage is 0.

With GGCAGAGCUCCACACCGCGUGGCAAAGUGGUUGUGGCUAGACUGCC [A11C A16C C31U], the self-cleavage amounted to 0.07.

For GGCAGAGCUCCACACCGCGUGGCAAAGUUGCUGUUGCUAGACUGCC [A11C A16C G29U G35U], the self-cleavage was found to be 0.02.

For the variant GGCAGAGCUCCACACAACGUGGCAAAGUGGCUGUGGCGAGGCUGCU [A11C G17A U38G A41G C46U], the self-cleavage amounted to 0.01.

For the variant GGCAGAGCUCCACCCAGCGUGGCUAAUUGGCUGUGGCUAGACUGCC [A11C A14C A24U G27U], the self-cleavage came out at 0.01.

Take GGCAGAGCUCCACACAGCGUGGCACCGUGGCAGUGGCUAGACUGCC [A11C A25C A26C U32A]: the self-cleavage came to 0.01.

For the variant GGCAGAGCUCCACACAACGUGGCAAAGUGGUUGUGGCUAGACUGCC [A11C G17A C31U], the self-cleavage is 0.07.

For the variant GGCAGAGCUCCACACAGCGUGGCAAUGUGGUUGUGGCUAGACUGCC [A11C A26U C31U], the self-cleavage amounted to 0.01.

Consider GGCAGAGCUCCACACAGUGUGGCAGAGUAGCUGUGGCUAGACUGGC [A11C C18U A25G G29A C45G], for which the self-cleavage stood at 0.

As for GGCAGAGCUCCACCCAGCGUGGCAAAGUGCCUGUGGCUAGACUUCC [A11C A14C G30C G44U], the self-cleavage was 0.

As for GGCAGAGCUCCACACAGCGUUGCAAAGUGGUUGUGGCUAGACUGCC [A11C G21U C31U], the self-cleavage was found to be 0.01.

On to GGCAGAGCUCCACACAGCGUGACCAAGUGGAUGUGGCUAGACUGCG [A11C G22A A24C C31A C46G], for which the self-cleavage amounted to 0.01.

For the variant GGCAGAGCUCCACACAGCGUGGCAAAGUGGCUGUGGCUAGAGUGAC [A11C C42G C45A], the self-cleavage stood at 0.01.

As for GGCAGAGCUCCAAACAGCGUGGCAAACUGGCUGUGGCUAGACUGCC [A11C C13A G27C], the self-cleavage amounted to 0.01.

Consider GGCAGAGCUCCACAAAGCGUGGCAAAGUGGAUGUGGCUAGACUGCC [A11C C15A C31A], for which the self-cleavage turned out to be 0.03.

On to GGCAGAGCUCCACACAGCGUGGCAGAGUGGCGGCUGCUAGACUGCC [A11C A25G U32G U34C G35U], for which the self-cleavage was 0.04.

As for GGCAGAGCUCCAUACAGCGGGGAAAAGUGGCUGUGGCUAGACUGCC [A11C C13U U20G C23A], the self-cleavage was determined as 0.01.
